# Data from PubChem BioAssay AID588342 (National Center for Advancing Translational Sciences (NCATS), 2011).
# Out of some 360,000 compounds screened, about 25,000 (6.9%) were called active. Inconclusive results, whose numbers are uncertain, are shown with a selection of clear calls. The call rests on the fitted dose curve; in most records, active means well fitted inhibition curve with a large enough effect; inconclusive means small, poorly fitted or top-dose-only effect; inactive means flat fitted curve, though single readings scatter. Potencies of inconclusive entries are doubtful fits and often do not repeat.
# Biological target: Luciferin 4-monooxygenase (Photinus pyralis) (UniProt P08659)
# Assay: qHTS profiling assay for firefly luciferase inhibitor/activator using purifed enzyme and Km concentrations of substrates (counterscreen for miR-21 project); further: nearly all actives have a fitted effect of over 55% in size
# Conditions: purified FLuc, luminescence inhibition; series mostly up to 57.5 µM
# Method in brief: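 Purified P. pyralis luciferase, 10 nM final, with Km-level 10 uM D-luciferin and 10 uM ATP in 50 mM Tris acetate pH 7.5, 10 mM Mg acetate, 0.01% Tween-20, 0.05% BSA; 6-point qHTS titration about 60 µM downward; luminescence read.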
# Potency means the concentration at half of the fitted maximal effect; tags describe the fitted curve by direction and shape.
# Sequence of UniProt P08659 (P08659 whole entry, looked up): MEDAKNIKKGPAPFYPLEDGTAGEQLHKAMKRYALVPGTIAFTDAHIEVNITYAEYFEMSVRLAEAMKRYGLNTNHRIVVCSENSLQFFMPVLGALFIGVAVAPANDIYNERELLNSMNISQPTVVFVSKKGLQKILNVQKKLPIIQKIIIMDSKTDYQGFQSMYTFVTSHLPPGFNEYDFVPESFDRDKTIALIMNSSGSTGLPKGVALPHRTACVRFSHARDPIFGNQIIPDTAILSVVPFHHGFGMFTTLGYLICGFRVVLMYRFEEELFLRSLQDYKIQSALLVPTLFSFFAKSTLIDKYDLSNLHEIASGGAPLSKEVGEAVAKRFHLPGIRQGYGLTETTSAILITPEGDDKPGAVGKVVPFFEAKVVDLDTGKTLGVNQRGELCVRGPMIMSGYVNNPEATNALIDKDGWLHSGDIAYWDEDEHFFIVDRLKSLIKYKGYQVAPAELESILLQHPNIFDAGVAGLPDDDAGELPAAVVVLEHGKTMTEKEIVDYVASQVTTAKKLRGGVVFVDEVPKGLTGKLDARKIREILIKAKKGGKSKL
row,Structure (SMILES),Potency
1,COc1ccc(CNC(=O)c2cccs2)cc1,inactive
2,O=C(NNc1c2ccccc2nc2ccccc12)c1cc2ccccc2cc1O,"inconclusive: 1.9 µM [inhibitor, partial curve, poor fit]"
3,CCCCCCCSc1nsc(N)n1,"inconclusive: 26.9 µM [inhibitor, single point]"
4,CCOc1ccc2nc(N3CCCC(C(=O)Nc4ccccc4CC)C3)sc2c1 (stereo not given),"inconclusive: 1.69 µM [inhibitor, partial curve, poor fit]"
5,CCN1CCN(C2=CC3=CC(=C(C#N)C#N)CCC3CC2)CC1 (stereo not given),inactive
6,CCCn1cccc(C(=O)Nc2ccc(OC)cc2)c1=O,"inconclusive: 23.9 µM [inhibitor, single point]"
7,CCCNC(=O)c1cc(Cl)c(NC(=O)C2=CSCCO2)cc1OC,active: 19 µM
8,Fc1ccc2nc(N3CCOCC3)sc2c1,"inconclusive: 30.1 µM [inhibitor, single point]"
9,OCCCNc1cc(-c2ccnc(Nc3cccc(Cl)c3)n2)ccn1,"inconclusive: 16.9 µM [inhibitor, partial curve]"
10,CC(C)c1ccc(/C=C/C(=O)NCc2ccc(S(N)(=O)=O)cc2)cc1,active: 13.5 µM
11,Cc1ccc2[nH]c3c(N4CCN(Cc5ccc6c(c5)OCO6)CC4)ncnc3c2c1,inactive
12,CSC1=NCCN1S(=O)(=O)c1ccc2ccccc2c1,"inconclusive: 19 µM [inhibitor, partial curve, poor fit]"
13,CCCCC1(C)OC(=O)C(=Cc2c[nH]c3ccccc23)C(=O)O1 (stereo not given),"inconclusive: 26.9 µM [inhibitor, partial curve, poor fit]"
14,CCOC(=O)c1c(-c2ccccc2)oc2ccc(OCC(O)CNCCN(C)C)cc12 (stereo not given),inactive
15,COc1ccc(CCn2c(SCC(=O)Nc3cc(C)on3)nc3ccsc3c2=O)cc1OC,inactive
16,CCn1nc(NC(=O)c2ccncc2)c2cc3cc(C)ccc3nc21,active: 16.9 µM
17,CCOC(=O)N1CCN(C(=O)C(C)N(c2ccc(Oc3ccccc3)cc2)S(C)(=O)=O)CC1 (stereo not given),inactive
18,Cc1ccc(C)c(NC(=O)c2nc(Cl)ccc2Cl)c1,"inconclusive: 37.9 µM [inhibitor, partial curve, poor fit]"
19,COc1ccccc1NC(=O)N1C2CCCC1CC(NC(=O)c1ccccc1)C2 (stereo not given),inactive
20,COc1ccc2c(c1)c(C(=O)N/N=C/c1ccc(OC)c(OC)c1)c(C)n2C,"inconclusive: 30.1 µM [inhibitor, partial curve, poor fit]"
21,CC(C)C(=O)Nc1cccc(C(=O)OCC(=O)c2ccc(Cl)cc2Cl)c1,active: 1.2 µM
22,CCN1CCN(CCCNC(=O)CCC(=O)N2CCOc3ccccc32)CC1,inactive
23,CCc1c(C)c2nncn2[nH]c1=O,inactive
24,Cc1ccc(-c2cc(C(=O)Nc3cc(C)ccc3O)no2)cc1,"inconclusive: 0.536 µM [inhibitor, partial curve, poor fit]"
25,COc1ccc(/C=C2\SC(=O)N(CCC(=O)Nc3ccc(S(=O)(=O)Nc4nccs4)cc3)C2=O)cc1,"inconclusive: 3.01 µM [inhibitor, partial curve, poor fit]"

row,Structure (SMILES),Potency
1,O=C(Cn1nnc2ccccc2c1=O)NC1CCCCC1,"inconclusive: 26.9 µM [inhibitor, partial curve, poor fit]"
2,Cc1ccc(C(=O)OCC(=O)N2CCc3ccccc32)cc1,active: 6.01 µM
3,CCCCc1ccc(/C(C)=N/Nc2cc(N3CCOCC3)nc(C)n2)cc1,"inconclusive: 37.9 µM [inhibitor, single point]"
4,Cc1cccc(NC(=S)NC(=O)/C=C/c2ccco2)n1,"inconclusive: 26.9 µM [inhibitor, single point]"
5,COc1ccc(C(=O)NCC(=O)N/N=C/C(C)=C/c2ccco2)cc1OC,"inconclusive: 26.9 µM [inhibitor, partial curve, poor fit]"
6,CC(C)CCNc1nc(Nc2ccccc2)c2cnn(C)c2n1,inactive
7,CN(C(=O)c1ccco1)c1nnc(C23CC4CC(CC(C4)C2)C3)s1,active: 9.53 µM
8,CCOC(=O)c1ccc(-n2c(CCC(=O)O)ccc2-c2ccccc2)cc1O,"inconclusive: 10.7 µM [inhibitor, partial curve]"
9,Cc1cc(NC(=O)C(C)Sc2nnc(NCc3ccco3)s2)no1 (stereo not given),inactive
10,Cc1ccc(/C=C/C(=O)N2CCN(c3ncccn3)CC2)o1,"inconclusive: 26.9 µM [inhibitor, single point]"
11,Cc1ccsc1C(=O)OCc1csc(-c2ccccc2)n1,active: 0.601 µM
12,CC(C)c1c(C(=O)N/N=C/c2ccoc2)nnn1-c1nonc1N,"inconclusive: 23.9 µM [inhibitor, single point]"
13,COc1cccc(-c2cc3nc(-c4ccccc4)cc(=O)n3[nH]2)c1,active: 12 µM
14,CN(C)c1cc[n+](CC(=O)Nc2ccc(Oc3ccccc3)cc2)cc1,inactive
15,Cc1ccc2cc(NC(=O)Cc3ccccc3)ccc2n1,active: 3.38 µM
16,O=C(Nc1cc(-c2cccc(Cl)c2)nn1-c1ccccc1)c1ccccc1F,"inconclusive: 12 µM [inhibitor, partial curve, poor fit]"
17,Cc1ccc(-n2nnnc2SCc2ccc(C(=O)O)cc2)cc1C,"inconclusive: 23.9 µM [inhibitor, partial curve, poor fit]"
18,O=C1c2ccsc2SCCN1Cc1ccccc1Cl,"inconclusive: 8.49 µM [inhibitor, single point]"
19,CC1=C(C#N)C(=O)NC(=O)/C1=C\c1ccc(-c2cc(C)c(C)cc2[N+](=O)[O-])o1,"inconclusive: 30.1 µM [inhibitor, single point]"
20,Cc1ccc(OCC(=O)NNC(=S)NC(=O)C2CC2)c(C)c1,active: 13.5 µM
21,COc1ccc(C(=O)Cn2cnc3ccc(Cl)cc3c2=O)cc1F,inactive
22,Cc1ccc(O)c(NC(=O)c2cc(-c3ccc(F)cc3)no2)c1,inactive
23,O=C(NCCS(=O)(=O)N1CCN(c2ccc(F)cc2)CC1)c1ccc2c(c1)OCO2,inactive
24,CC(C)c1ccc(NC(=O)C2CCCN(S(=O)(=O)c3cnc[nH]3)C2)cc1 (stereo not given),"inconclusive: 30.1 µM [inhibitor, partial curve, poor fit]"
25,CCOC(=O)c1snc(C(=O)NC2CCCCC2)c1N,active: 13.5 µM

row,Structure (SMILES),Potency
1,COc1cc(CNCc2cccs2)ccc1OCc1ccccc1,"inconclusive: 30.1 µM [inhibitor, partial curve, poor fit]"
2,CCCOc1ccc(-c2nc(-c3ccc([N+](=O)[O-])cc3)cs2)cc1,"inconclusive: 9.53 µM [inhibitor, partial curve, poor fit]"
3,O=c1[nH]c(/C=C\c2cccc(F)c2)nc(O)c1[N+](=O)[O-],inactive
4,FC(F)(F)Oc1ccc(Nc2nc3ccccc3o2)cc1,active: 8.49 µM
5,CC(C)(C)c1ccc(/C=C/C(=O)NCCCn2ccnc2)cc1,"inconclusive: 26.9 µM [inhibitor, single point]"
6,Cc1cc(C)c2c3c(sc2n1)C1(CCSCC1)C(C#N)=C(N)O3,"inconclusive: 26.9 µM [inhibitor, single point]"
7,CCOC(=O)C1CCCN(C(=O)c2ccc3c(c2)N(C)C(=O)/C(=C/c2ccccc2Cl)S3)C1 (stereo not given),inactive
8,Cc1cccc(NC(=O)CNC(=O)CCNC(=O)c2ccc(C(C)(C)C)cc2)c1C,"inconclusive: 21.3 µM [inhibitor, single point]"
9,COc1ccc(NC(=O)c2ccccc2F)cc1Cl,active: 9.53 µM
10,COc1ccccc1NC(=O)COc1ccccc1C(=O)Nc1ccccc1,"inconclusive: 37.9 µM [inhibitor, single point]"
11,COc1ccc(/C=N/N=C/c2ccc(OC)cc2)cc1,"inconclusive: 1.69 µM [inhibitor, partial curve, poor fit]"
12,Cc1ccc2nc(SCc3cn4cccnc4n3)[nH]c2c1,"inconclusive: 33.8 µM [inhibitor, partial curve, poor fit]"
13,COc1ccccc1CNC(=O)CCc1c(C)c2cc3c(C)coc3cc2oc1=O,inactive
14,CCn1ccc2c(OCC(=O)Nc3ccc(OC)cc3OC)cccc2c1=O,inactive
15,C=CCc1c(C)[nH]c2ccc(C)cc2c1=O,"inconclusive: 26.9 µM [inhibitor, partial curve]"
16,CCN(CC)c1ccc(/C=c2\sc3nc4ccccc4n3c2=O)c(O)c1,"inconclusive: 30.1 µM [inhibitor, partial curve, poor fit]"
17,N#Cc1ccc(C(=O)Nc2cc(C3CC3)nn2-c2ccccc2)cc1,inactive
18,O=S(=O)(Nc1ccc(O)c(Sc2nc3ccccc3s2)c1)c1cc(Cl)ccc1Cl,"inconclusive: 12 µM [inhibitor, partial curve]"
19,CCCn1nc(NC(=O)C2CCCO2)c2cc3cc(C)ccc3nc21 (stereo not given),"inconclusive: 23.9 µM [inhibitor, partial curve]"
20,CCN(C(=O)Cn1cc(C(=O)C(=O)N2CCOCC2)c2ccccc21)c1ccccc1,inactive
21,O=C(Nc1nnc(-c2ccccn2)o1)c1cccc(Cl)c1,"inconclusive: 37.9 µM [inhibitor, partial curve, poor fit]"
22,CC1CC(C)CN(S(=O)(=O)c2ccc(NC(=O)CN3C(=O)NC(C)(c4ccccc4)C3=O)cc2)C1 (stereo not given),inactive
23,c1ccc(CN2OCC3Cn4c(nc5ccccc54)C32)cc1 (stereo not given),inactive
24,COc1ccc(CCNC(=O)c2nonc2N)cc1,"inconclusive: 26.9 µM [inhibitor, partial curve, poor fit]"
25,CCCC(=O)Nc1ccc(NC(=O)c2ccccc2Cl)nc1,"inconclusive: 30.1 µM [inhibitor, single point]"
